The list shows a part of the results. Most values come without repeats; read them as rough.
Tests used:
Test in all cases: cell count relative to DMSO control; melanoma cells; higher = more viable cells
Details in all cases: library dose: standard library concentration; 72 h
[1] = test system: G361
[2] = test system: IPC-298
[3] = test system: IST-MEL1
[4] = test system: LB2518-MEL
[5] = test system: LOXIMVI
[6] = test system: MEL-HO
[7] = test system: MZ2-MEL
[8] = test system: MeWo
[9] = test system: RPMI7951
[10] = test system: RVH-421
[11] = test system: SkMel28
[12] = test system: SkMel2
[13] = test system: SkMel30
[14] = test system: SkMel5
[15] = test system: UACC257
[16] = test system: UACC62
[17] = test system: WM115
[18] = test system: WM1716
[19] = test system: WM1745
[20] = test system: WM3526
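Further: cells treated in 1,536-well plates, then fixed and DAPI-stained, with nuclei counted from automated high-throughput microscope images.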

Row | SMILES | cell count [1] [%] | cell count [2] [%] | cell count [3] [%] | cell count [4] [%] | cell count [5] [%] | cell count [6] [%] | cell count [7] [%] | cell count [8] [%] | cell count [9] [%] | cell count [10] [%] | cell count [11] [%] | cell count [12] [%] | cell count [13] [%] | cell count [14] [%] | cell count [15] [%] | cell count [16] [%] | cell count [17] [%] | cell count [18] [%] | cell count [19] [%] | cell count [20] [%]
1 | O=C(O)c1ccc2c(c1)nc(Nc1cccc(Cl)c1)c1ccncc12 + Cn1cncc1[C@@](N)(c1ccc(Cl)cc1)c1ccc2c(c1)c(-c1cccc(Cl)c1)cc(=O)n2C [tipifarnib] (first compound 2 µM, partner dose 0.05 µM) | 48.2 | 72.9 | 77 | 81.1 | 39.2 | 54.5 | 74.5 | 68.8 | 42.5 | 65 | 36.1 | 57.1 | 65.6 | 62.8 | 74.8 | 72.9 | 68.9 | 77 | 74.7 | 55.8
2 | O=C(O)[C@@H]1[O][Sb](=[O])([O][Sb]2(=[O])[O][C@H]([C@H](O)CO)[C@H](O)[C@H](C(=O)O)[O]2)[O][C@H]([C@H](O)CO)[C@@H]1O (stereo not given in full) [stibogluconate] + OCc1c[nH]c2ccccc12 [Indole-3-carbinol] (first compound 10 µM, partner dose 4 µM) | 101 | 92.1 | 83.6 | 98.2 | 62.9 | 88.5 | 101 | 97 | 118 | 72.2 | 81.4 | 98 | 80.3 | 76.3 | 99.1 | 79.6 | 76.1 | 74.7 | 95.9 | 86.2
3 | O=C(Nc1cc(C(F)(F)F)cc(C(F)(F)F)c1)c1cc(Cl)ccc1O + OCc1c[nH]c2ccccc12 [Indole-3-carbinol] (first compound 0.08 µM, partner dose 4 µM) | 91.9 | 72.8 | 83 | 86.1 | 64.3 | 89.3 | 93.8 | 99.2 | 128 | 147 | 89.4 | 90.4 | 82.9 | 82.6 | 86.1 | 75.9 | 87 | 82.3 | 126 | 87.1
4 | Cc1cc(N2CCOCC2)cc2[nH]c(-c3c(NC[C@@H](O)c4cccc(Cl)c4)cc[nH]c3=O)nc12 + Cn1cc(/C=C2\C(=O)Nc3cccnc32)c2ccccc21 [GW441756] (first compound 1 µM, partner dose 2 µM) | 79 | 97.4 | 104 | 96.3 | 92.4 | 88.6 | 99.4 | 79.7 | 83.9 | 103 | 70.4 | 84 | 85.8 | 60.4 | 79.3 | 97.1 | 76.8 | 101 | 59.6 | 66
5 | O=C(Nc1ccccc1)c1cc([N+](=O)[O-])ccc1Cl + COc1ccc(COc2ccc(Cc3cnc(N)nc3N)cc2OC)cc1 [GW2580] (first compound 10 µM, partner dose 5 µM) | 71.3 | 89.2 | 102 | 80.9 | 82.9 | 84.3 | 88.3 | 86.1 | 93.6 | 86.2 | 75.6 | 91.3 | 81.6 | 55.4 | 77.8 | 105 | 65.9 | 79.2 | 71.6 | 91.3
6 | O=C(Nc1cc(C(F)(F)F)cc(C(F)(F)F)c1)c1cc(Cl)ccc1O + Cc1cc(Nc2cc(N3CCN(C)CC3)nc(/C=C/c3ccccc3)n2)n[nH]1 [ENMD2076] (first compound 0.08 µM, partner dose 0.2 µM) | 96.1 | 89.2 | 85.7 | 85.6 | 90.8 | 81.8 | 99 | 82 | 83.3 | 84.7 | 54.3 | 82.9 | 105 | 71.7 | 87.4 | 78.7 | 63.1 | 92.4 | 101 | 86.8
7 | Cc1cc(N2CCOCC2)cc2[nH]c(-c3c(NC[C@@H](O)c4cccc(Cl)c4)cc[nH]c3=O)nc12 + C[C@@H]1CCN(C(=O)CC#N)C[C@@H]1N(C)c1ncnc2[nH]ccc12 [CP690550] (first compound 1 µM, partner dose 5 µM) | 79.9 | 99.4 | 104 | 75.5 | 72.7 | 101 | 123 | 65.4 | 108 | 104 | 99.1 | 75.6 | 84.5 | 73.3 | 99.1 | 101 | 67.2 | 102 | 60.1 | 79.3
8 | Cc1cc(N2CCOCC2)cc2[nH]c(-c3c(NC[C@@H](O)c4cccc(Cl)c4)cc[nH]c3=O)nc12 + c1cc(-c2cnn3cc(-c4ccc(OCCN5CCCCC5)cc4)cnc23)ccn1 [Dorsomorphin] (first compound 1 µM, partner dose 2 µM) | 59.8 | 73.4 | 84.4 | 62 | 86.1 | 84.7 | 58.5 | 54 | 75.4 | 95.7 | 59.5 | 61.6 | 62.2 | 44.8 | 74.3 | 86.4 | 69.2 | 77.6 | 32 | 61.5
9 | O=C(O)c1ccc2c(c1)nc(Nc1cccc(Cl)c1)c1ccncc12 + C[C@]1(c2nc3c(C(N)=O)cccc3[nH]2)CCCN1 [Veliparib] (first compound 2 µM, partner dose 7 µM) | 62.2 | 72.7 | 75.8 | 79.7 | 41.2 | 53 | 67 | 95.9 | 76.8 | 69.2 | 75 | 67.5 | 74.5 | 73.3 | 89.3 | 55.5 | 93.6 | 79.8 | 61.9 | 65
10 | Cn1nnc2c(C(N)=O)ncn2c1=O [temozolomide] + COc1ccc(COc2ccc(Cc3cnc(N)nc3N)cc2OC)cc1 [GW2580] (first compound 10 µM, partner dose 5 µM) | 77.8 | 72.3 | 88.1 | 95.9 | 76.5 | 86.9 | 73 | 91.8 | 77.7 | 88.2 | 29.6 | 111 | 44.2 | 69.9 | 81.8 | 76.3 | 95.1 | 56.4 | 90.3 | 84.1
11 | Cc1cc(N2CCOCC2)cc2[nH]c(-c3c(NC[C@@H](O)c4cccc(Cl)c4)cc[nH]c3=O)nc12 + CCN(CC)CCCCNc1ncc2cc(-c3cc(OC)cc(OC)c3)c(NC(=O)NC(C)(C)C)nc2n1 [PD173074] (first compound 1 µM, partner dose 0.5 µM) | 67.5 | 89.5 | 108 | 84.7 | 58.1 | 90.8 | 108 | 67.1 | 68.9 | 76.1 | 92 | 77.2 | 83.7 | 70 | 98.1 | 97.2 | 92.7 | 111 | 50.8 | 75
12 | Cc1cc(N2CCOCC2)cc2[nH]c(-c3c(NC[C@@H](O)c4cccc(Cl)c4)cc[nH]c3=O)nc12 + O=C(Nc1ccccc1)c1cc([N+](=O)[O-])ccc1Cl [GW9662] (first compound 1 µM, partner dose 10 µM) | 67.3 | 87.1 | 101 | 97.8 | 53.6 | 96.5 | 87.5 | 63.8 | 110 | 155 | 66.8 | 83.7 | 68.5 | 69.9 | 83.2 | 108 | 77.6 | 104 | 58.3 | 85.7
13 | O=C(Nc1cc(C(F)(F)F)cc(C(F)(F)F)c1)c1cc(Cl)ccc1O + Cc1nc(Nc2ncc(C(=O)Nc3c(C)cccc3Cl)s2)cc(N2CCN(CCO)CC2)n1 [dasatanib] (first compound 0.08 µM, partner dose 0.02 µM) | 70.5 | 90.7 | 62.1 | 114 | 16.4 | 65 | 55.1 | 80.9 | 30.9 | 73.9 | 74.5 | 98.6 | 88.4 | 65 | 57.2 | 84.8 | 69 | 67.6 | 42.1 | 85.7
14 | Cc1cc(N2CCOCC2)cc2[nH]c(-c3c(NC[C@@H](O)c4cccc(Cl)c4)cc[nH]c3=O)nc12 + COc1cc2c(Oc3ccc4[nH]c(C)cc4c3F)ncnc2cc1OCCCN1CCCC1 [cediranib] (first compound 1 µM, partner dose 2 µM) | 73.3 | 93.4 | 92.6 | 80.3 | 36.1 | 88.7 | 97.8 | 63 | 36.9 | 81.6 | 60.8 | 74.2 | 93.4 | 61.7 | 96.3 | 92.5 | 85 | 117 | 49.8 | 76.1
15 | O=C(O)c1ccc2c(c1)nc(Nc1cccc(Cl)c1)c1ccncc12 + Cn1nnc2c(C(N)=O)ncn2c1=O [temozolomide] (first compound 2 µM, partner dose 10 µM) | 70.5 | 67.3 | 67.2 | 110 | 44.8 | 58.6 | 59.4 | 78.9 | 53.9 | 90.7 | 27.3 | 69 | 62.3 | 67 | 99.5 | 48.7 | 74.7 | 42.1 | 62.9 | 64.8
16 | O=C(Nc1cc(C(F)(F)F)cc(C(F)(F)F)c1)c1cc(Cl)ccc1O + CS(=O)(=O)c1ccc(C(=O)Nc2ccc(Cl)c(-c3ccccn3)c2)c(Cl)c1 [vismodegib] (first compound 0.08 µM, partner dose 5 µM) | 91.8 | 81.3 | 93.7 | 109 | 134 | 85.5 | 87.8 | 87.8 | 119 | 130 | 98 | 106 | 89.8 | 101 | 116 | 72.1 | 113 | 120 | 124 | 94.9
